Data as given in US20110319597A1 (CAPHALON AUSTRALIA, published 2011).

Molecular target: T1, recombinant human TNFα (CytoLab) (human, UniProt P01375 part only)
T1 construct: coated on the ELISA plate at 1 µg/ml; also called Tumour necrosis factor alpha
Assay: ELISA on coated human TNFα

T1 sequence (P01375 77-233 limits assumed): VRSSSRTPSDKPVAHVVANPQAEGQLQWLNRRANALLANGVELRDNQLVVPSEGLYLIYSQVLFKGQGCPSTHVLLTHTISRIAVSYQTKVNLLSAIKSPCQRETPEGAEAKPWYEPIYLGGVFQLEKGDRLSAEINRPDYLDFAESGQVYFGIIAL

A450 (AU): 0.246 AU
B3: TNFα dAb Fc variant L79P (Fc fusion, name in Kabat numbering)
chain: DIQMTQSPSSLSASVGDRVTITCRASQAIDSYLHWYQQKPGKAPKLLIYSASNLETGVPSRFSGSGSGTDFTLTISSLPPEDFATYYCQQVVWRPFTFGQGTKVEIKRV[human IgG1 Fc with changes left out]

A450 (AU): 1.32 AU
B4: TNFα dAb Fc variant L79Q (Fc fusion, name in Kabat numbering)
chain: DIQMTQSPSSLSASVGDRVTITCRASQAIDSYLHWYQQKPGKAPKLLIYSASNLETGVPSRFSGSGSGTDFTLTISSLQPEDFATYYCQQVVWRPFTFGQGTKVEIKRV[human IgG1 Fc with changes left out]

A450 (AU): 0.369 AU
B5: TNFα dAb Fc variant L78P (Fc fusion, name in Kabat numbering)
chain: DIQMTQSPSSLSASVGDRVTITCRASQAIDSYLHWYQQKPGKAPKLLIYSASNLETGVPSRFSGSGSGTDFTLTISSPLPEDFATYYCQQVVWRPFTFGQGTKVEIKRV[human IgG1 Fc with changes left out]

A450 (AU): 0.273 AU
B13: TNFα dAb Fc variant L78Q (Fc fusion, name in Kabat numbering)
chain: DIQMTQSPSSLSASVGDRVTITCRASQAIDSYLHWYQQKPGKAPKLLIYSASNLETGVPSRFSGSGSGTDFTLTISSQLPEDFATYYCQQVVWRPFTFGQGTKVEIKRV[human IgG1 Fc with changes left out]

A450 (AU): 0.61 AU
B15: TNFα dAb Fc variant L78S (Fc fusion, name in Kabat numbering)
chain: DIQMTQSPSSLSASVGDRVTITCRASQAIDSYLHWYQQKPGKAPKLLIYSASNLETGVPSRFSGSGSGTDFTLTISSSLPEDFATYYCQQVVWRPFTFGQGTKVEIKRV[human IgG1 Fc with changes left out]

A450 (AU): 0.489 AU
B17: TNFα dAb Fc variant L78K (Fc fusion, name in Kabat numbering)
chain: DIQMTQSPSSLSASVGDRVTITCRASQAIDSYLHWYQQKPGKAPKLLIYSASNLETGVPSRFSGSGSGTDFTLTISSKLPEDFATYYCQQVVWRPFTFGQGTKVEIKRV[human IgG1 Fc with changes left out]

A450 (AU): 0.379 AU
B18: TNFα dAb Fc variant L78Y (Fc fusion, name in Kabat numbering)
chain: DIQMTQSPSSLSASVGDRVTITCRASQAIDSYLHWYQQKPGKAPKLLIYSASNLETGVPSRFSGSGSGTDFTLTISSYLPEDFATYYCQQVVWRPFTFGQGTKVEIKRV[human IgG1 Fc with changes left out]

Continued, binder first:

B1: TNFα dAb Fc variant K39H (Fc fusion, name in Kabat numbering)
chain: DIQMTQSPSSLSASVGDRVTITCRASQAIDSYLHWYQQHPGKAPKLLIYSASNLETGVPSRFSGSGSGTDFTLTISSLLPEDFATYYCQQVVWRPFTFGQGTKVEIKRV[human IgG1 Fc with changes left out]
A450 (AU): 1.06 AU

B2: TNFα dAb Fc variant K42P (Fc fusion, name in Kabat numbering)
chain: DIQMTQSPSSLSASVGDRVTITCRASQAIDSYLHWYQQKPGPAPKLLIYSASNLETGVPSRFSGSGSGTDFTLTISSLLPEDFATYYCQQVVWRPFTFGQGTKVEIKRV[human IgG1 Fc with changes left out]
A450 (AU): 0.246 AU

B6: TNFα dAb Fc variant L46P (Fc fusion, name in Kabat numbering)
chain: DIQMTQSPSSLSASVGDRVTITCRASQAIDSYLHWYQQKPGKAPKPLIYSASNLETGVPSRFSGSGSGTDFTLTISSLLPEDFATYYCQQVVWRPFTFGQGTKVEIKRV[human IgG1 Fc with changes left out]
A450 (AU): 0.179 AU

B7: TNFα dAb Fc variant L78A (Fc fusion, name in Kabat numbering)
chain: DIQMTQSPSSLSASVGDRVTITCRASQAIDSYLHWYQQKPGKAPKLLIYSASNLETGVPSRFSGSGSGTDFTLTISSALPEDFATYYCQQVVWRPFTFGQGTKVEIKRV[human IgG1 Fc with changes left out]
A450 (AU): 0.847 AU

B8: TNFα dAb Fc variant L73Q (Fc fusion, name in Kabat numbering)
chain: DIQMTQSPSSLSASVGDRVTITCRASQAIDSYLHWYQQKPGKAPKLLIYSASNLETGVPSRFSGSGSGTDFTQTISSLLPEDFATYYCQQVVWRPFTFGQGTKVEIKRV[human IgG1 Fc with changes left out]
A450 (AU): 0.155 AU

B9: TNFα dAb Fc variant L73P (Fc fusion, name in Kabat numbering)
chain: DIQMTQSPSSLSASVGDRVTITCRASQAIDSYLHWYQQKPGKAPKLLIYSASNLETGVPSRFSGSGSGTDFTPTISSLLPEDFATYYCQQVVWRPFTFGQGTKVEIKRV[human IgG1 Fc with changes left out]
A450 (AU): 0.173 AU

B10: TNFα dAb Fc variant L47S (Fc fusion, name in Kabat numbering)
chain: DIQMTQSPSSLSASVGDRVTITCRASQAIDSYLHWYQQKPGKAPKLSIYSASNLETGVPSRFSGSGSGTDFTLTISSLLPEDFATYYCQQVVWRPFTFGQGTKVEIKRV[human IgG1 Fc with changes left out]
A450 (AU): 0.222 AU

B11: TNFα dAb Fc variant K45P (Fc fusion, name in Kabat numbering)
chain: DIQMTQSPSSLSASVGDRVTITCRASQAIDSYLHWYQQKPGKAPPLLIYSASNLETGVPSRFSGSGSGTDFTLTISSLLPEDFATYYCQQVVWRPFTFGQGTKVEIKRV[human IgG1 Fc with changes left out]
A450 (AU): 0.191 AU

B12: TNFα dAb Fc variant L73K (Fc fusion, name in Kabat numbering)
chain: DIQMTQSPSSLSASVGDRVTITCRASQAIDSYLHWYQQKPGKAPKLLIYSASNLETGVPSRFSGSGSGTDFTKTISSLLPEDFATYYCQQVVWRPFTFGQGTKVEIKRV[human IgG1 Fc with changes left out]
A450 (AU): 0.269 AU

B14: TNFα dAb Fc variant L46K (Fc fusion, name in Kabat numbering)
chain: DIQMTQSPSSLSASVGDRVTITCRASQAIDSYLHWYQQKPGKAPKKLIYSASNLETGVPSRFSGSGSGTDFTLTISSLLPEDFATYYCQQVVWRPFTFGQGTKVEIKRV[human IgG1 Fc with changes left out]
A450 (AU): 0.243 AU

B16: TNFα dAb Fc variant L46S (Fc fusion, name in Kabat numbering)
chain: DIQMTQSPSSLSASVGDRVTITCRASQAIDSYLHWYQQKPGKAPKSLIYSASNLETGVPSRFSGSGSGTDFTLTISSLLPEDFATYYCQQVVWRPFTFGQGTKVEIKRV[human IgG1 Fc with changes left out]
A450 (AU): 0.171 AU

B19: TNFα dAb Fc variant L46A (Fc fusion, name in Kabat numbering)
chain: DIQMTQSPSSLSASVGDRVTITCRASQAIDSYLHWYQQKPGKAPKALIYSASNLETGVPSRFSGSGSGTDFTLTISSLLPEDFATYYCQQVVWRPFTFGQGTKVEIKRV[human IgG1 Fc with changes left out]
A450 (AU): 0.185 AU

B20: TNFα dAb Fc variant L73H (Fc fusion, name in Kabat numbering)
chain: DIQMTQSPSSLSASVGDRVTITCRASQAIDSYLHWYQQKPGKAPKLLIYSASNLETGVPSRFSGSGSGTDFTHTISSLLPEDFATYYCQQVVWRPFTFGQGTKVEIKRV[human IgG1 Fc with changes left out]
A450 (AU): 0.155 AU

B21: TNFα dAb Fc variant K39L (Fc fusion, name in Kabat numbering)
chain: DIQMTQSPSSLSASVGDRVTITCRASQAIDSYLHWYQQLPGKAPKLLIYSASNLETGVPSRFSGSGSGTDFTLTISSLLPEDFATYYCQQVVWRPFTFGQGTKVEIKRV[human IgG1 Fc with changes left out]
A450 (AU): 1.06 AU

B22: TNFα dAb Fc variant L73Y (Fc fusion, name in Kabat numbering)
chain: DIQMTQSPSSLSASVGDRVTITCRASQAIDSYLHWYQQKPGKAPKLLIYSASNLETGVPSRFSGSGSGTDFTYTISSLLPEDFATYYCQQVVWRPFTFGQGTKVEIKRV[human IgG1 Fc with changes left out]
A450 (AU): 0.204 AU

One block for each binder: values may come before it.
